Experimental data from the supplement of paper PMC3334620.
In all, about 33,000 sequences were measured (“E-score (-0.5 to 0.5)”: median about -0.035, highest 2% from about 0.34 on). Some of the results follow.

molecular target: T1, Mot3 (UniProt P54785); assay: PBM E-score (8-mer binding enrichment) (E-score (-0.5 to 0.5)); higher = stronger / more preferred TF binding; most listed sequences are background and not binding sites; conditions: protein concentration: 200 nM; construct: GST-full length
T1 sequence: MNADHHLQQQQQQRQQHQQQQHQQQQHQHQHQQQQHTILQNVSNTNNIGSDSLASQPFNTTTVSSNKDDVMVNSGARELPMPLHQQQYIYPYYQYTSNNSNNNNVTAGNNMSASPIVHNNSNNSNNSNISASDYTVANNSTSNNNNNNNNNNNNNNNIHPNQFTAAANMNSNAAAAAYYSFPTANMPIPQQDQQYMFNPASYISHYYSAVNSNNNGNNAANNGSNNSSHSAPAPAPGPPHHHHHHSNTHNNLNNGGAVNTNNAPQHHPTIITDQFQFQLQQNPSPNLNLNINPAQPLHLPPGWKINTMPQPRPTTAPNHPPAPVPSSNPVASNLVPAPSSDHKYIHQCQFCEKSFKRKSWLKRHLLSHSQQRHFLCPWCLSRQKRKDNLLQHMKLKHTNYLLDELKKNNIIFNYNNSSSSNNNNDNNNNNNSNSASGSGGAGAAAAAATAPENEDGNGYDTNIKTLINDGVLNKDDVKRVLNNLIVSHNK
Outline: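 The E-score, a modified Wilcoxon-Mann-Whitney statistic, was computed by the Universal PBM Analysis Suite for every ungapped eight-base word pooled with its reverse complement. Scans behind it were normalised with masliner after bound GST-tagged yeast transcription factors were detected with fluorescent anti-GST. The proteins, at about 100-200 nM, had been applied to universal all-10-mer Agilent arrays made double-stranded by primer extension.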

Row | Sequence | PBM E-score
1 | ACTCCTGA | -0.165
2 | AACCACGT | 0.182
3 | GATAGATC | -0.0899
4 | GAGAAAGC | -0.0963
5 | CCAGTTGA | -0.0825
6 | TGCTACAA | 0.134
7 | AGCTTCCC | -0.287
8 | AACCACTT | 0.0242
9 | CCGGATTC | -0.329
10 | CTCCTACA | 0.136
11 | AACCTGGA | -0.0836
12 | CCCCTCAG | -0.151
13 | CATACAAC | 0.15
14 | ATTCGCGG | 0.0358
15 | ACATCTCC | 0.00689
16 | CCTTCGCC | -0.106
17 | ATGCTCAC | -0.0615
18 | TAGGTAAA | 0.276
19 | CGGGTCGC | -0.201
20 | TGTAGAAA | 0.337
21 | TCTCATAA | -0.122
22 | CAATTTAG | 0.0343

Row | Sequence | PBM E-score
23 | AAGTCTAA | 0.0239
24 | GGACGGCC | -0.199
25 | AGGGGAGC | -0.216
26 | CACCGGAG | -0.299
27 | ACAAACCC | 0.11
28 | AACAATAT | 0.295
29 | CTAATTAA | 0.0811
30 | AAACGGTG | 0.0529
31 | AAACAATT | -0.024
32 | CTTAATGC | -0.137
33 | CGGTATAG | -0.202
34 | CATCCTTC | 0.0917
35 | TACGCCCA | -0.0439
36 | GGTACAAC | 0.0803
37 | CTCTGCGC | -0.0498
38 | AGTATTGC | 0.111
39 | AGGACGGG | -0.187
40 | TAGCGTAA | 0.185
41 | CTAGCCTA | -0.184
42 | CGCCCTTC | -0.218
43 | CCTGACGA | 0.191
44 | ATTAGATA | 0.0716

Row | Sequence | PBM E-score
45 | AGCCTCCA | -0.369
46 | CAACCAAC | 0.0394
47 | TTCGGAAA | -0.185
48 | CCAGGCAC | 0.487
49 | CCCTCTCG | -0.33
50 | GAATTTCA | -0.0752
51 | CTCATTGC | -0.0374
52 | AGTGCCGA | -0.324
53 | GAGATAGC | -0.227
54 | GAACTTCA | -0.0947
55 | GGTGTCAA | 0.0373
56 | CGCCTCAC | 0.0846
57 | GCTAAAAC | 0.0951
58 | CCCGCTAG | -0.192
59 | CAGAGTTC | -0.124
60 | ATTGAACC | 0.108
61 | CAAATGCG | -0.0866
62 | AATATCCC | -0.178
63 | ATTAGGGC | -0.0941
64 | AACGCTGT | 0.109
65 | AACGTCAG | -0.144
66 | CATCGTTC | 0.0809

Row | Sequence | PBM E-score
67 | AGCCGCAC | -0.216
68 | GGGTTCGA | -0.0674
69 | ACATCTAC | 0.26
70 | GGGTCAAC | -0.162
71 | TGAGGGCA | -0.0148
72 | GAAGGAAA | 0.454
73 | TCCTACCA | -0.108
74 | ATTCCTTG | 0.0459
75 | GCAGTTAA | -0.0564
76 | ACGCATCG | -0.0642
77 | ACCACATA | 0.153
78 | CATACGTA | 0.228
79 | GTGATCTA | -0.0534
80 | TCAATTAA | 0.16
81 | ACTCTTGA | -0.0504
82 | GGGCATAA | -0.204
83 | GAACGTAC | 0.143
84 | ATAACTCA | 0.13
85 | CTCTTTAA | -0.0131
86 | GGAGCGAC | -0.267
87 | CGTTGGGC | -0.00826
88 | GAACTCTA | 0.0582

Row | Sequence | PBM E-score
89 | GCTCCCCC | -0.288
90 | CCAAAAAA | 0.118
91 | AGGCTGAT | -0.165
92 | CGGCATAC | -0.141
93 | AGGCTTAC | 0.00056
94 | AAAAACGT | 0.0784
95 | ATTACACG | 0.435
96 | AACAAATA | 0.119
97 | AAGTTGTG | 0.089
98 | CACACGAC | 0.0741
99 | TAAACGCA | 0.203
100 | AGATGAAT | 0.15
101 | AGGGTAAG | -0.0833
102 | GCTAGGTA | -0.0278
103 | CCGGACTA | -0.219
104 | TCCCACGA | -0.194
105 | GTTAGAAC | 0.0517
106 | AGCTCGGG | -0.267
107 | ATTACGTA | 0.354
108 | GAGTAAAC | 0.158
109 | AGTACCAG | -0.106
110 | ACCTCTGC | -0.247
